Measurements as given in PubChem BioAssay AID1508624 (National Center for Advancing Translational Sciences (NCATS), 2021).
Hit rate of the full screen: of about 48,000 compounds, about 120 (0.25%) were called active. Not shown: some 4% with an inconclusive outcome. Calls come from the whole dose curve; as a rule, active = well fitted activation curve with a large enough effect; inconclusive = small, poorly fitted or top-dose-only effect, or another doubt; inactive = no such curve, though single readings can be large or run the other way. Some of the results follow.

Assay: Primary qHTS for Identification of Small Molecule Activators of Huntingtin-Antisense Promoter Activity; note: nearly all actives have a fitted effect of over 55% in size
Details: HEK293 HTT-AS promoter firefly luciferase reporter (activity 0% = vehicle and -100% = no light), 24 h; series mostly up to 57.5 µM; activity change, positive = activation: at the top concentration
Method in brief: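 HEK293 Fluc reporter, 2,500 cells/well, 24 h pre-culture; cpds up to 57.5 uM final, 24 h 37 degrees C; Dual-Glo, 10 min RT; normalized vehicle = 0%, zero RLU = -100%.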
For `Cc1ccc2c(C)c(C(=O)N(Cc3ccc(N(C)C)cc3)Cc3ccco3)oc2c1C`, the “activity change, positive = activation” value was inactive: -20%.
For `O=C(CCSCCc1ccccn1)Nc1ccc(Cl)cc1`, the “activity change, positive = activation” value was inactive: -8.56%.
For `CCn1c(=O)c2sccc2n2c(CCC(=O)Nc3ccc(F)cc3)nnc12`, the “activity change, positive = activation” value was inactive: -14.3%.
For `COc1ccc2c(c1)c(N1CCCC1=O)c(C(=O)Nc1cc(C)c(Cl)cc1OC)n2C`, the “activity change, positive = activation” value was inactive: -6.22%.
For `CCN(c1ccccc1)S(=O)(=O)c1nnc(NC(=O)C2CCCCC2)s1`, the “activity change, positive = activation” value was inactive: -11%.
In the case of `Cc1ccc2c(c1)cc1c(=O)n(Cc3ccccc3Cl)nc(C)n12`, the “activity change, positive = activation” value is reported as inactive: -0.915%.
For `CC(=O)Nc1ccc(C)cc1-c1nc2ccccc2n(CC(=O)c2ccc(C)c(C)c2)c1=O`, the “activity change, positive = activation” value was inactive: -15.8%.
In the case of `CN1CCN(c2nc3c(S(=O)(=O)c4ccc(Cl)cc4)nnn3c3ccsc23)CC1`, the “activity change, positive = activation” value is reported as inactive: -9.32%.
For `COc1ccc(S(=O)(=O)n2nc(C)c(S(=O)(=O)N3CCCCCC3)c2C)cc1C`, the “activity change, positive = activation” value was inactive: -9.86%.
With `O=C(NCCc1csc(-c2ccc(C(F)(F)F)cc2)n1)C(=O)Nc1ccc(F)c(Cl)c1` the “activity change, positive = activation” value was inactive: -9.49%.
In the case of `CCOc1ccccc1NS(=O)(=O)c1ccc(N2CCCCS2(=O)=O)cc1`, the “activity change, positive = activation” value is reported as inactive: -6.85%.
In the case of `CCOC(=O)c1c(N)n(-c2ccc(CC)cc2)c2nc3ccccc3nc12`, the “activity change, positive = activation” value is reported as inactive: -21.4%.
With `Cc1ccc(C)c(NC(=O)Cn2c(SCC(=O)NCc3ccccc3)nc3ccccc32)c1` the “activity change, positive = activation” value was inactive: -12.5%.
For `O=C(CN1C(=O)CSc2ccc(S(=O)(=O)N3CCOCC3)cc21)NCCCN1CCCCC1`, the “activity change, positive = activation” value was inactive: -1.57%.
With `CC(C)CCCC(C)CCCC(C)CCCCC(C)CCCC(C)CCCC(C)C` (stereo not given) the “activity change, positive = activation” value was inactive: -0.709%.
For `Cc1ccc(N(CC(=O)N2CCN(c3ccccc3)CC2)S(=O)(=O)c2c(C)noc2C)cc1`, the “activity change, positive = activation” value was inactive: -22.4%.
For `Cc1nc(-c2ccc(F)cc2)sc1CCNC(=O)c1cccs1`, the “activity change, positive = activation” value was inactive: -8.98%.
With `CC(=O)N1CCOc2cc(S(=O)(=O)NCc3ccccc3Cl)c(Cl)cc21` the “activity change, positive = activation” value was inactive: -6.02%.
With `CCc1ccc(NC(=O)Cn2c(=O)n(-c3ccccc3C)c(=O)c3c2c2cc(OC)ccc2n3C)cc1` the “activity change, positive = activation” value was inactive: -39.9%.
With `O=C(c1ccc2c(c1)N(Cc1cccc(Cl)c1)C(=O)c1ccccc1S2=O)N1CCC(Cc2ccccc2)CC1` (stereo not given) the “activity change, positive = activation” value was inactive: -32.4%.
In the case of `CCOC(=O)c1c(S(=O)(=O)N2CCC(C(=O)Nc3ccc(C)c(Cl)c3)CC2)c(C)n(C)c1C`, the “activity change, positive = activation” value is reported as inactive: -4.98%.
For `O=C(c1cccc([N+](=O)[O-])c1)N1CCN(c2ccc(Nc3ccccc3)nn2)CC1`, the “activity change, positive = activation” value was inactive: -15.8%.
With `COc1nnc(-c2ccc(N3CCCCC3)c(NC(=O)c3ccc(C)cc3)c2)c2ccccc12` the “activity change, positive = activation” value was inactive: -18.7%.
In the case of `CC[N+](CC)(CC)CCOC(=O)C(C1CCCC1)C1CCCC1`, the “activity change, positive = activation” value is reported as inactive: -6.17%.
For `O=S(=O)(c1ccc(-c2cnc(C3CC3)o2)cc1)N1CCN(c2ccc(F)cc2)CC1`, the “activity change, positive = activation” value was inactive: -12.5%.
With `CCn1nc(C)c2c(-c3ccccc3)cc(=O)n(C(C)C(=O)NCCc3ccc(Cl)cc3)c21` (stereo not given) the “activity change, positive = activation” value was inactive: -28.6%.
In the case of `CCOc1ccc(NC(=O)CCCn2c(C)c3cnn(-c4ccccc4)c(=O)c3c2C)cc1`, the “activity change, positive = activation” value is reported as inactive: -5.95%.
In the case of `COc1ccc(OC)c(NC(=O)CSC2=Nc3ccccc3C3=NC(CC(=O)NCCc4ccccc4)C(=O)N23)c1` (stereo not given), the “activity change, positive = activation” value is reported as inactive: 14.2%.
For `CCOc1cccc(CNCCCSc2nnnn2C)c1`, the “activity change, positive = activation” value was inactive: -10.2%.
With `Oc1c(C(c2ccccc2)N2CCCC2)sc2nc(-c3ccco3)nn12` (stereo not given) the “activity change, positive = activation” value was inactive: -9.81%.
In the case of `COc1ccc(-c2onc(C)c2C)cc1S(=O)(=O)NCCc1ccccc1`, the “activity change, positive = activation” value is reported as inactive: -33.1%.
For `CCOC(=O)Cc1ccc(NC(=O)NC(C)c2c(-n3cccc3)sc(C)c2C)cc1` (stereo not given), the “activity change, positive = activation” value was inactive: -25%.
In the case of `COc1ccc(CCN2C(=O)N(c3cccc(OC)c3)C(=O)C2CC(=O)Nc2ccccc2)cc1` (stereo not given), the “activity change, positive = activation” value is reported as inactive: 0%.
In the case of `Cc1ccc(C)c(Cn2c(=O)n(-c3ccccc3)c(=O)c3c4c(sc32)CCCC4)c1`, the “activity change, positive = activation” value is reported as inactive: -16.2%.
For `CCOC(=O)c1c(C)[nH]c(CCC(=O)NCc2cc(OC)c(OC)c(OC)c2)c1C`, the “activity change, positive = activation” value was inactive: 4.44%.
For `COc1cc(-n2c(=O)c3ccccc3n(Cc3cccc(Cl)c3)c2=O)cc(OC)c1OC`, the “activity change, positive = activation” value was inactive: -28.5%.
In the case of `CCNC(=O)CC1C(=O)N(c2ccc(C)cc2)C(=O)N1CCOC` (stereo not given), the “activity change, positive = activation” value is reported as inactive: -12.6%.
With `COc1ccc(CNC(=O)CN2C(=O)CCn3nc(-c4cn(C)c5ccccc45)cc32)cc1` the “activity change, positive = activation” value was inactive: -2.75%.
With `COc1ccc(CCNC(=O)CN(c2ccccc2)S(=O)(=O)N(C)C)cc1OC` the “activity change, positive = activation” value was inactive: -22.4%.
With `CC(=O)N1CCC(N(CCCOC(C)C)C(=O)Nc2ccc(C)c(C)c2)CC1` the “activity change, positive = activation” value was inactive: -6.34%.
In the case of `Cc1ccc(NC(=O)c2oc3ccc(S(=O)(=O)N4CCC5(CC4)OCCO5)cc3c2C)cc1Cl`, the “activity change, positive = activation” value is reported as inactive: -19.7%.
In the case of `CCc1cccc(C)c1NC(=O)CSc1nc2ccccc2nc1Cc1ccccc1`, the “activity change, positive = activation” value is reported as inactive: -14.8%.
For `COc1ccc(-c2nc3cc(NC(=O)COc4ccccc4C)ccc3o2)cc1`, the “activity change, positive = activation” value was inactive: 13%.
In the case of `O=C(CN1C(=O)CCSc2ccc(S(=O)(=O)N3CCCC3)cc21)Nc1cccc(F)c1`, the “activity change, positive = activation” value is reported as inactive: -7.88%.
For `CCOC(=O)C(C)NC(=O)c1c2c(nc3ccccc13)C(=O)N(C1CCCCC1)C2` (stereo not given), the “activity change, positive = activation” value was inactive: 3.01%.
In the case of `COc1cc(C(c2c(C)[nH][nH]c2=O)c2c(C)[nH][nH]c2=O)ccc1OC(=O)c1ccccc1OC`, the “activity change, positive = activation” value is reported as inactive: 3.32%.
In the case of `COC(=O)CC1Oc2ccccc2-n2cc(-c3ccc(F)cc3)nc21` (stereo not given), the “activity change, positive = activation” value is reported as inactive: -22.1%.
For `Cc1cccc(NC(=O)CSC2=Nc3ccccc3C3=NC(CCC(=O)NCc4ccco4)C(=O)N23)c1` (stereo not given), the “activity change, positive = activation” value was inactive: -5.29%.
For `COc1cc(OC)c(NC(=O)Cn2ncn3c(cc4cc(C)ccc43)c2=O)cc1Cl`, the “activity change, positive = activation” value was inactive: -0.424%.
For `Cn1cc(C=C2C(=O)Nc3cccnc32)c2ccccc21`, the “activity change, positive = activation” value was inactive: 18%.
For `COc1ccccc1CNC(=O)Cn1cc2c(n1)-c1c(oc(C(=O)N3CCOCC3)c1C)CC2`, the “activity change, positive = activation” value was inactive: -24.8%.
With `COC(=O)c1sccc1S(=O)(=O)N(CC(=O)Nc1cccc(C)c1C)c1ccc(C)c(C)c1` the “activity change, positive = activation” value was inactive: -25.8%.
In the case of `CC(C)CN(CCNC(=O)CCN1N=C(c2ccccc2)CCC1=O)CC(C)C`, the “activity change, positive = activation” value is reported as inactive: -8.1%.
In the case of `CCSc1nc2ccccc2c(OCc2ccc(Cl)cc2)c1C(=O)OC`, the “activity change, positive = activation” value is reported as inactive: -0.751%.
In the case of `COc1ccc2c(c1)c1c(c(=O)n(CCc3ccccc3)c(=O)n1Cc1cccc(F)c1)n2C`, the “activity change, positive = activation” value is reported as inactive: -6.7%.
For `Cc1ccc(-c2onc(C)c2C)cc1S(=O)(=O)Nc1ccccn1`, the “activity change, positive = activation” value was inactive: -3.18%.
With `CC(C)(C)OC(=O)N1CCC(c2c(C(=O)N3CCN(Cc4ccccc4)CC3)cnn2-c2cccc(Cl)c2)CC1` the “activity change, positive = activation” value was inactive: -19.9%.
With `CCC(=O)N1CCc2cc(CNS(=O)(=O)c3ccc(CC(C)C)cc3)ccc21` the “activity change, positive = activation” value was inactive: -29.8%.
With `CCN1CCN(c2ncc3c(n2)CCN(Cc2ccccc2C)C3)CC1` the “activity change, positive = activation” value was inactive: -12.9%.
In the case of `COc1ccc(-c2nc(CS(=O)CC(=O)NCCc3ccc(Cl)cc3)c(C)o2)cc1OC` (stereo not given), the “activity change, positive = activation” value is reported as inactive: -14.2%.
